# Results reported in patent publication US11136613B2, “Antibacterial polypeptide libraries and methods for screening the same” (priority 2015, dated 2021).
# System: antimicrobial peptide resistant E. coli strain WD101
# Experiment: Peptide library screen by next-generation sequencing, output versus input abundance
# Settings: WD101, 0.1 mM IPTG, 3 hours
# From the text: FIGS. 5A-B: (A) Abundance of sequencing reads from the input library is plotted against abundance of sequencing reads from a representative output sample. The red box encloses peptides that are 15-125 fold depleted in the output samples. (B) Peptide A, shown in panel 5A, was re-cloned into our surface expression system and grown in wild type W3110 E. coli and the isogenic antimicrobial resistant E. coli strain WD101. IPTG induction of Peptide A led to cell lysis of both strains. Lysis by cecropin P1 is shown as a control.
# A significant advancement of this platform is using next-generation sequencing to quantify the antimicrobial activity of individual peptides as part of a massive pool. This increases throughput while greatly reducing screening costs. The inventors' platform uses simple subtractive analysis of output from input library pools to determine peptide sequences that cause cell lysis and eliminate themselves from the input pool. One lane of a standard HiSeq Illumina sequencer generates 200 million sequencing reads. […]
# Using this workflow, the inventors performed a proof of principle experiment, to validate the use of the platform to identify potent antimicrobial peptides. […] Approximately 2 million sequencing reads for input and output samples were acquired, giving ˜20 fold coverage of each input peptide sequence. […]
substance,measurement,value
"cecropin P1 (SWLSKTAKKLENSAKKRISEGIAIAIQGGPR; Cecropin-P1; UniProt P14661 14-44, looked up)",output/input ratio of sequencing reads,did not change
